These results are taken from the supplement of paper PMC12462457.

In the experiment the test system is OVCAR8. In words: cell count relative to DMSO vehicle (fold change); OVCAR8 is a high-grade serous ovarian cancer line and CX-5461 an RNA polymerase I inhibitor; higher = more surviving senescent cells (less killing). Conditions: senescence inducer: CX-5461 3 µM 48 h, then 6 d recovery (CX senescent), exposure time 24 h.

± gives the standard deviation of the averaged measurements. The list shows a part of the results.

For the compound `COc1cc(O)cc(O)c1C(=O)/C=C/c1ccccc1` [Cardamonin], the cell count is, setting by setting: (compound dose 1 µM) 1.14 ± 0.12; (compound dose 5 µM) 1.18 ± 0.24.
For the compound `Cc1cnc(NC(=O)C2=C(O)c3ccccc3S(=O)(=O)N2C)s1`, the cell count came out at 1.06 ± 0.2 (compound dose 1 µM) and 1.05 ± 0.25 (compound dose 5 µM).
As for `CC(C)Oc1ccc(C(=O)N[C@H](CNC(=O)CN(C)C)Cc2ccc(-c3cn4cccc([C@H](C)O)c4n3)cc2)cc1Cl`, the cell count runs as follows: (compound dose 1 µM) 0.957 ± 0.15; (compound dose 5 µM) 1.12 ± 0.061.
As for `COc1ccc(/C=C/C(=O)c2c(O)cc(OC)cc2OC)cc1` [Flavokawain A], the cell count is, setting by setting: (compound dose 1 µM) 1.13 ± 0.12; (compound dose 5 µM) 1.25 ± 0.13.
For the compound `C=C(C)[C@@H]1CC[C@]2(C(=O)O)CC[C@]3(C)[C@H](CC[C@@H]4[C@@]5(C)CC[C@H](O)[C@@](C)(CO)[C@@H]5CC[C@]43C)[C@@H]12` [23-Hydroxybetulinic acid], the cell count is, setting by setting: (compound dose 1 µM) 1.11 ± 0.18; (compound dose 5 µM) 1.18 ± 0.3.
As to `CCOc1cc2ncc(-c3cc(N)nc(F)c3)n2cc1S(=O)(=O)C(C)(C)C`, the cell count is, setting by setting: (compound dose 1 µM) 1.27 ± 0.25; (compound dose 5 µM) 1.23 ± 0.13.
In the case of `OC[C@H]1O[C@@H](n2cnc3c(NCc4ccco4)ncnc32)[C@H](O)[C@@H]1O` [Kinetin riboside], the cell count (compound dose 1 µM) was 1.11 ± 0.067 and the cell count (compound dose 5 µM) was found to be 0.998 ± 0.11.
Regarding `O=c1cc(-c2ccc(O)c(-c3c(O)cc(O)c4c(=O)cc(-c5ccc(O)cc5)oc34)c2)oc2cc(O)cc(O)c12` [Amentoflavone], the cell count worked out at 1.09 ± 0.073 (compound dose 1 µM) and 0.964 ± 0.11 (compound dose 5 µM).
As to `COc1ccccc1S(=O)(=O)Nc1ccc2c(c1)CN(C)C(=O)N2`, the cell count was 0.957 ± 0.19 (compound dose 1 µM) and 1.02 ± 0.041 (compound dose 5 µM).
Compound `COc1cc(O)c(CC=C(C)C)c(O)c1C(=O)/C=C/c1ccc(O)cc1` [Xanthohumol] had a cell count (compound dose 1 µM) of 1.03 ± 0.14 and a cell count (compound dose 5 µM) of 1.05 ± 0.041.
As for `CN(C)CCOc1ccc(/C(=C(/CCCl)c2ccccc2)c2ccccc2)cc1` [Toremifene (citrate)], the cell count is, setting by setting: (compound dose 1 µM) 1.07 ± 0.058; (compound dose 5 µM) 1.07 ± 0.059.
For `C[C@H]1C[C@H]2[C@@H]3CCC4=CC(=O)C=C[C@]4(C)[C@@]3(F)[C@@H](O)C[C@]2(C)[C@@]1(O)C(=O)CO` [Betamethasone], in that order: 1.12 ± 0.22 and 1.03 ± 0.15.
For `Cc1noc(C)c1-c1cc(Cl)c(Nc2ccccc2C(=O)NO)c(Cl)c1`, in that order: 1.08 ± 0.24 and 1.16 ± 0.3.
For `COc1cc2nccc(Oc3ccc(NC(=O)C4(C(=O)Nc5ccc(F)cc5)CC4)cc3)c2cc1OC`, in that order: 1.32 ± 0.16 and 1.36 ± 0.23.
As to `COc1cc2nccc(Oc3ccc(NC(=O)C4(C(=O)Nc5ccc(F)cc5)CC4)cc3)c2cc1OC` [Cabozantinib malate (XL184)], the cell count reads like this: (compound dose 1 µM) 1.22 ± 0.04; (compound dose 5 µM) 1.2 ± 0.31.
On to `CCOc1nc2cccc(C(=O)O)c2n1Cc1ccc(-c2ccccc2-c2noc(=O)[nH]2)cc1` [Azilsartan], for which the cell count (compound dose 1 µM) amounted to 1.02 ± 0.25 and the cell count (compound dose 5 µM) was found to be 0.926 ± 0.0099.
As to `FC1(F)N=C(c2ccc(Cl)cc2)SC1(F)c1ccc(Cl)cc1` (stereo not given) [Fluorizoline], the cell count is 1.04 ± 0.068 (compound dose 1 µM) and 0.685 ± 0.19 (compound dose 5 µM).
On to `Cc1onc(C(=O)N2CCN(C(c3ccc(Cl)cc3)c3ccc(Cl)cc3)CC2)c1[N+](=O)[O-]`, for which the cell count by setting is: (compound dose 1 µM) 0.0155 ± 0.012; (compound dose 5 µM) 0.015 ± 0.0028.
As for `Nc1ccccc1NC(=O)c1ccc(CNC(=O)OCc2cccnc2)cc1` [Entinostat (MS-275)], the cell count was found to be 1.26 ± 0.13 (compound dose 1 µM) and 1.28 ± 0.023 (compound dose 5 µM).
On to `CCCCC1=NC2(CCCC2)C(=O)N1Cc1ccc(-c2ccccc2-c2nnn[nH]2)cc1`, for which the cell count runs as follows: (compound dose 1 µM) 1.09 ± 0.091; (compound dose 5 µM) 0.982 ± 0.17.
The matching figures for `CN(C)CC[C@H](CSc1ccccc1)Nc1ccc(S(=O)(=O)NC(=O)c2ccc(N3CCN(Cc4ccccc4-c4ccc(Cl)cc4)CC3)cc2)cc1[N+](=O)[O-]`: 1.09 ± 0.1 and 0.92 ± 0.044.
`O=[N+]([O-])c1ccc2c(c1)S(=O)(=O)C=C2` [Stattic]: the cell count amounted to 1.13 ± 0.14 (compound dose 1 µM) and 1.16 ± 0.11 (compound dose 5 µM).
`CNC(=O)c1ccc(-c2cnc3ncc(Cc4ccc5ncccc5c4)n3n2)cc1F` [Capmatinib]: the cell count is, setting by setting: (compound dose 1 µM) 1.04 ± 0.23; (compound dose 5 µM) 0.98 ± 0.27.
Regarding `CCOC(=O)[C@H](CCc1ccccc1)N[C@@H](C)C(=O)N1[C@H](C(=O)O)C[C@@H]2CCC[C@@H]21` [Ramipril], the cell count is 1.18 ± 0.013 (compound dose 1 µM) and 1.16 ± 0.15 (compound dose 5 µM).
Consider `O=C(COc1ccc(Cl)cc1)NC1CCC(NC(=O)COc2ccc(Cl)cc2)CC1` (stereo not drawn) [ISRIB (trans-isomer)], for which the cell count is, setting by setting: (compound dose 1 µM) 0.907 ± 0.1; (compound dose 5 µM) 1.04 ± 0.23.
In the case of `O=c1c(O)c(-c2ccc(O)c(O)c2)oc2cc(O)ccc12`, the cell count (compound dose 1 µM) came out at 1.16 ± 0.17 and the cell count (compound dose 5 µM) amounted to 1.22 ± 0.21.
Consider `O=C1C2C3C=CC(C4CC34)C2C(=O)N1c1ccc(Cc2ccncc2)cc1` (stereo not given), for which the cell count reads like this: (compound dose 1 µM) 1.04 ± 0.042; (compound dose 5 µM) 1.02 ± 0.18.
As for `COc1cc2c(cc1OC(C)C)[C@H](c1ccc(Cl)cc1)N(c1ccc(N(C)C[C@H]3CC[C@H](N4CCN(C)C(=O)C4)CC3)cc1)C(=O)C2`, the cell count runs as follows: (compound dose 1 µM) 0.95 ± 0.26; (compound dose 5 µM) 0.801 ± 0.066.
In the case of `Cc1cc(C2CCCCC2)n(O)c(=O)c1`, the cell count reads like this: (compound dose 1 µM) 1.06 ± 0.18; (compound dose 5 µM) 1.2 ± 0.083.
As for `CCc1cc2c(=O)c(-c3nc4ccccc4s3)coc2c(CN2CCCCC2)c1O`, the cell count runs as follows: (compound dose 1 µM) 1.25 ± 0.22; (compound dose 5 µM) 1.13 ± 0.21.
Regarding `C[C@H]1[C@H](C)CC[C@]2(C(=O)O)CC[C@]3(C)C(=CC[C@@H]4[C@@]5(C)CCC(=O)C(C)(C)[C@@H]5CC[C@]43C)[C@H]12` [Ursonic acid], the cell count reads like this: (compound dose 1 µM) 1.13 ± 0.41; (compound dose 5 µM) 0.903 ± 0.22.
As to `CCn1c(=O)c(-c2cc(NC(=O)Nc3ccccc3)c(F)cc2Br)cc2cnc(NC)cc21` [Ripretinib], the cell count reads like this: (compound dose 1 µM) 0.957 ± 0.085; (compound dose 5 µM) 0.705 ± 0.029.
For the compound `CCOc1cc([C@@H](CS(C)(=O)=O)N2C(=O)c3cccc(NC(C)=O)c3C2=O)ccc1OC` [Apremilast], the cell count is, setting by setting: (compound dose 1 µM) 0.927 ± 0.25; (compound dose 5 µM) 0.944 ± 0.15.
In the case of `Cc1nc(N2CCN(C)CC2)nc2c1Nc1ccccc1S2`, the cell count was determined as 1.12 ± 0.24 (compound dose 1 µM) and 1.08 ± 0.15 (compound dose 5 µM).
With `COc1cc(/C=C/C(=O)N2CCC=CC2=O)cc(OC)c1OC`, the cell count is 1.02 ± 0.072 (compound dose 1 µM) and 0.909 ± 0.14 (compound dose 5 µM).
The matching figures for `FC(F)(F)c1ccc(CNc2ccc(Cc3c[nH]c4ncc(Cl)cc34)cn2)cn1` [Pexidartinib]: 1.13 ± 0.17 and 1.25 ± 0.14.
With `OCCNC1CCCc2c1[nH]c1ccc(-c3ccccc3)cc21` (stereo not given), the cell count (compound dose 1 µM) turned out to be 1.057 ± 0.0042 and the cell count (compound dose 5 µM) is 0.987 ± 0.032.
For `O=C(CCCCCCC(=O)NO)NO` [Suberoyl bis-hydroxamic acid], the cell count reads like this: (compound dose 1 µM) 1.22 ± 0.21; (compound dose 5 µM) 1.25 ± 0.2.
As to `CC(C)[C@H](CO)Nc1nc(Nc2cccc(Cl)c2)c2ncn(C(C)C)c2n1` [Purvalanol A], the cell count by setting is: (compound dose 1 µM) 1.06 ± 0.32; (compound dose 5 µM) 0.907 ± 0.24.
Regarding `COc1ccc(N(C)c2nc(C)nc3ccccc23)cc1` [Verubulin], the cell count was found to be 0.889 ± 0.26 (compound dose 1 µM) and 0.937 ± 0.22 (compound dose 5 µM).
On to `COc1ccc([C@H]2CNC(=O)C2)cc1OC1CCCC1` [(S)-(+)-Rolipram], for which the cell count by setting is: (compound dose 1 µM) 1.03 ± 0.22; (compound dose 5 µM) 1.08 ± 0.3.
For the compound `O=C1CC[C@H](NC(=O)Cc2ccccc2)C(=O)N1` [Antineoplaston A10], the cell count was found to be 1.27 ± 0.13 (compound dose 1 µM) and 1.41 ± 0.24 (compound dose 5 µM).
With `O=C1NCCSc2c1sc1ccc(O)cc21`, the cell count by setting is: (compound dose 1 µM) 1.13 ± 0.23; (compound dose 5 µM) 0.801 ± 0.09.
The matching figures for `COc1ccccc1-c1cc(Nc2cccc(CS(N)(=O)=O)c2)ncn1`: 0.981 ± 0.084 and 0.921 ± 0.096.
For `Cc1cc(C)cc(NC(N)=Nc2ccccc2C(F)(F)F)c1`, in that order: 1.1 ± 0.16 and 1.04 ± 0.047.
